No constants are given. Whether binding was seen depends on the method and setting. Binding seen in cells or lysates may run through a third protein. Some entries that bind do so weakly or less than the wild type. For part of these data: Tags and fused reporters may be left off the sequences shown.

By UniProt entry, the sequences of proteins in these tests, tags left out.
UniProt O95069: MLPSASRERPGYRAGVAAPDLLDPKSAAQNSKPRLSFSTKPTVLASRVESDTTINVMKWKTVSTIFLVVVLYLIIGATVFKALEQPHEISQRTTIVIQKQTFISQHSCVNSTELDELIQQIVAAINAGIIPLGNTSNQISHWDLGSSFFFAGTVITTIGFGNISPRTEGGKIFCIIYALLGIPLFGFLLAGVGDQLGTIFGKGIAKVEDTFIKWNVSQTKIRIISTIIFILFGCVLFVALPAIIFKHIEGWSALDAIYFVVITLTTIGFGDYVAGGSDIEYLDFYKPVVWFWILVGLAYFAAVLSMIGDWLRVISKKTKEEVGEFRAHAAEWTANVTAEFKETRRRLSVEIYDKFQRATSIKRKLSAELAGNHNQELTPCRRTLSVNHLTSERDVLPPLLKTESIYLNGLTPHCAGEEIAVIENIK

These results are taken from publication PMC8986152.

The target in one assay is T1, POPDC1-CFP (UniProt Q8NE79).
T1 sequence: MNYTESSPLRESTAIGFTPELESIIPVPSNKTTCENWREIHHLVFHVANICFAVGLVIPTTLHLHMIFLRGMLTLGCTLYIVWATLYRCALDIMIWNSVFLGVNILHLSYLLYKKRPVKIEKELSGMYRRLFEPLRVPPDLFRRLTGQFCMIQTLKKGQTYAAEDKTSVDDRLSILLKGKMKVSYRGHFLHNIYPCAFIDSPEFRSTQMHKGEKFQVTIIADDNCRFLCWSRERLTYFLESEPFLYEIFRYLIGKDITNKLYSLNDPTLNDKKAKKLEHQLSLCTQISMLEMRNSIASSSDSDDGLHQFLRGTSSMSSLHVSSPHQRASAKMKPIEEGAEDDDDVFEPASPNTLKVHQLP
In words: FRET or BRET; bi-molecular FRET sensor POPDC1-CFP / YFP-TREK1 in live HEK293 cells stably expressing PDE4A4; FRET saline pH 7.4; untreated or with 25 μM forskolin, 10 μM rolipram, 10 μM scrambled or disruptor peptide.

Assay [1] deals with T2, PDE4A (PDE4A5), endogenous in neonatal rat ventricular myocytes (rat (endogenous in neonatal rat ventricular myocytes)) (UniProt P54748).
T2 sequence: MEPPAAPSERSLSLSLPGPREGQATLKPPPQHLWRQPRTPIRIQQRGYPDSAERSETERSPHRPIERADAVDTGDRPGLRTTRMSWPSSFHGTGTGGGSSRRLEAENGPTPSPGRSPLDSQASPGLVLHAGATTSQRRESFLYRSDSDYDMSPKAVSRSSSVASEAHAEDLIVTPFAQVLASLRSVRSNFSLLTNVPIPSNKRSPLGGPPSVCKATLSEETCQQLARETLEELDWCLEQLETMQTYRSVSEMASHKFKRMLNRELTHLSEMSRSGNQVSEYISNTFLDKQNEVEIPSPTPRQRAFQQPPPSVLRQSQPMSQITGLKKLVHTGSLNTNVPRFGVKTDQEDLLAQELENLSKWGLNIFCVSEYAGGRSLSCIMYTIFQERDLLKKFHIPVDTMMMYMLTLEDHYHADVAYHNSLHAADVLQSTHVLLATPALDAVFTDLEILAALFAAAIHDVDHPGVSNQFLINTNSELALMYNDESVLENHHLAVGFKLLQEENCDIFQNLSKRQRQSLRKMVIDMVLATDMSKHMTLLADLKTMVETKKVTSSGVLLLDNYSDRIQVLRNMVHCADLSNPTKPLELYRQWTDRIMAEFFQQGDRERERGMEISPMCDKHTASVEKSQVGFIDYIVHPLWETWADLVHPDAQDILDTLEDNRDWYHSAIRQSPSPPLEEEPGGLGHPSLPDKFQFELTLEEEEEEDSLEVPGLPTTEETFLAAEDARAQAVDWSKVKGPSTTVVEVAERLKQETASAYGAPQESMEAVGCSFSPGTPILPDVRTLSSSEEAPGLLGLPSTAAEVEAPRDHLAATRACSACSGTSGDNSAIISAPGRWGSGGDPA
In words: proximity ligation; competition: NRVMs, endogenous proteins, treated with 10 μM stearate-conjugated disruptor peptide for two hours; the peptide as competitor; only the binder purified.

Another assay concerns the target T3, VSV-PDE4A5 (murine) (UniProt O89084).
T3 sequence: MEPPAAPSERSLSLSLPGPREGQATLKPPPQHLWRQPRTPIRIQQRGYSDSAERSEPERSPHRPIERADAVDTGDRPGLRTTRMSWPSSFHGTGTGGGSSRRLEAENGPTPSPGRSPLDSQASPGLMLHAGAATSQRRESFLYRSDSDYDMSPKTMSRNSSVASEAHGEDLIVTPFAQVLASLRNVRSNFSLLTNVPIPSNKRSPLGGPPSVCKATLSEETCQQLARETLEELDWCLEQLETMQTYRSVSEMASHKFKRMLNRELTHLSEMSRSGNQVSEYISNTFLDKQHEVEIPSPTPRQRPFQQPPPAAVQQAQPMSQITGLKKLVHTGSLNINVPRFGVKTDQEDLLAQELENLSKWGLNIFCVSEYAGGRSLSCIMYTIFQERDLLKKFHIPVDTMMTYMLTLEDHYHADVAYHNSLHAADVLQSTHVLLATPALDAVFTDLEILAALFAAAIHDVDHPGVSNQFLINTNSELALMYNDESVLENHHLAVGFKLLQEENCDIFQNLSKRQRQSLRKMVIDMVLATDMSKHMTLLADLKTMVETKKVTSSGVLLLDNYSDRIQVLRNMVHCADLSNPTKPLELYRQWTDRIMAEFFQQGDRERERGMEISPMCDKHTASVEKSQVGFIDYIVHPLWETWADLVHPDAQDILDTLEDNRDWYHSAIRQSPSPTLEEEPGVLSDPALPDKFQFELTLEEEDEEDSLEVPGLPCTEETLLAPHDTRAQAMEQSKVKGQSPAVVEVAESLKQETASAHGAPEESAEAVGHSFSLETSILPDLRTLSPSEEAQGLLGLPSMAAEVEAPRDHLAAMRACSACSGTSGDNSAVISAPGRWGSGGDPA
The assay is described as follows: co-IP; competition: HEK293 transfected with POPDC1-myc and PDE4A5-VSV, cells treated with 10 μM stearate-conjugated disruptor peptide; myc-conjugated resin; the peptide as competitor; only the binder purified.

Turning to YFP-TREK1 (from UniProt O95069 1-426), the binding result in the assay with POPDC1-CFP is listed as “binds”.

B1: POPDC1-PDE4 disruptor peptide (T154-K178 of POPDC1 conjugated to a stearate group) (peptide)
peptide: TLKKGQTYAAEDKTSVDDRLSILLK
modifications: conjugated to a stearate group (position not given)
Take B1: the binding result (in assay [1]; with VSV-PDE4A5 (murine)) was “binds” each time.
